# Over roughly 5,400 compounds, “IFI” has its median near 2; the highest 2% begin near 22. Some of the results follow.
# Test: NOVARTIS: Inhibition Frequency Index (IFI) - the number of HTS assays where a compound showed > 50% inhibition/induction, expressed as a percentage of the number of assays in which the compound was tested.
# Format: functional
row,Compound,IFI
1,COc1cccc(-n2sc3c(c2=S)-c2cc(OC)ccc2NC3(C)C)c1,3.68%
2,CC(C)(C)NC(=S)NN=CC=NNC(=S)NC(C)(C)C,4.72%
3,O=C(/C=C/c1ccccc1)Nc1ccccc1C(=O)Nc1ccc(-c2nc3ccc(NC(=O)c4ccccc4NC(=O)/C=C/c4ccccc4)cc3[nH]2)cc1,15.4%
4,Cc1ccc(C)c(N2C(=O)CC(Cc3ccc(Cl)cc3)C2=O)c1 (stereo not drawn),0%
5,COc1ccc(CNC(=O)C(Cc2c[nH]c3ccccc23)N2CCS(=O)(=O)CC2)cc1 (stereo not drawn),1.28%
6,CC(c1nc2ccccc2c(=O)n1-c1ccccc1Cl)N(Cc1ccccc1)C(=O)Nc1cccc(Br)c1 (stereo not drawn),5.88%
7,CN1CCN(c2c3c(c(C#N)c4nc5ccccc5n24)CCC3)CC1,0.671%
8,C=CCOc1ccc(C2C(C(=O)OCC)=C(C)N=c3sc(=Cc4ccccc4O)c(=O)n32)cc1OCC (stereo not drawn),2.35%
9,COc1ccc(CNC2CCN(Cc3ccccc3)CC2)cc1OCc1ccccc1,14.3%
10,Cc1ccc(C2CC(=O)N3CN(c4ccc(Br)cc4)CSC3=C2C#N)o1 (stereo not drawn),0%
11,CC1CCCCN1CCCNc1ncc(C(=O)NCc2ccccc2)c(NCC2CCCCC2)n1 (stereo not drawn),0.971%
12,CCOC(=O)c1cnc2c(ccc3ccccc32)c1Nc1ccc(NC(C)=O)cc1,0%
13,Cc1ccc(-c2cc(N3CCCC3CO)n3nccc3n2)cc1 (stereo not drawn),3.03%
14,CCOC(=O)C1=C(C)NC2=C(C(=O)C(C(=O)OCC)C(c3ccccc3OC)C2)C1c1cccs1 (stereo not drawn),4.49%
15,COc1cc(OC)cc(-n2nc(C(=O)NC3CCCCC3)c3ccccc3c2=O)c1,2.41%
16,C[n+]1ccc(C=Cc2ccc(O)cc2)cc1,2.21%
17,COc1cc(OC)cc(C(=O)NCc2n[nH]c(=S)n2-c2cccc(C(F)(F)F)c2)c1,2.38%
18,Cc1cc(C)n(CC(O)Cn2c3ccc(Cl)cc3c3cc(Cl)ccc32)n1 (stereo not drawn),0.694%
19,O=C(NCc1ccco1)C1CCCN(c2cccc3c2C(=O)N(CCc2cccc(F)c2)C3=O)C1 (stereo not drawn),6%
20,COC(=O)C1=C(C)NC2=C(C(=O)CC(c3ccc(OC)c(OC)c3)C2)C1c1ccc(Cl)cc1Cl (stereo not drawn),6.02%

row,Compound,IFI
1,CC[n+]1c(/C=C/c2ccc(F)cc2)ccc2ccccc21,5.1%
2,CN(C)c1cc[n+](CC(=O)c2ccc(Cl)cc2)cc1,0%
3,COc1cc(NC(C)CCCN(Cc2ccc(Cl)cc2)C(=O)Nc2cccc(C(F)(F)F)c2)c2ncccc2c1 (stereo not drawn),2.7%
4,CC[n+]1c(C=CN(C)c2ccccc2)oc(-c2ccccc2)c1-c1ccccc1,22.7%
5,O=C(Nc1cccnc1)c1cc(-c2cccnc2)nc2ccc(Cl)cc12,0%
6,CC(C)C[C@@H](NC(=O)[C@H](C)NC(=O)CNC(=O)[C@@H](NC=O)C(C)C)C(=O)N[C@@H](C)C(=O)N[C@@H](C(=O)N[C@H](C(=O)N[C@@H](C(=O)N[C@@H](Cc1c[nH]c2ccccc12)C(=O)N[C@H](CC(C)C)C(=O)N[C@@H](Cc1c[nH]c2ccccc12)C(=O)N[C@H](CC(C)C)C(=O)N[C@@H](Cc1c[nH]c2ccccc12)C(=O)N[C@H](CC(C)C)C(=O)N[C@@H](Cc1c[nH]c2ccccc12)C(=O)NCCO)C(C)C)C(C)C)C(C)C,27.6%
7,CC1(C)C2CCC1(C)C(NCc1ccccc1O)C2 (stereo not drawn),1.49%
8,Cc1ncc(CN2CCC(C(=O)Nc3ccc(-n4cccn4)cc3)CC2)s1,0%
9,CCCCCc1ccc(OCCCC[n+]2cccc(C)c2)c(CCCCC)c1,14.7%
10,Cc1ccn2c(NC(C)(C)CC(C)(C)C)c(-c3ccccc3OC(=O)c3ccc(Cl)cc3Cl)nc2c1,5.66%
11,COc1ccc(Nc2ccccc2NC(=O)c2cccc(N(C)C)c2)cc1,0%
12,C[n+]1ccc(/C=C/c2c[nH]c3ccccc23)cc1,7.46%
13,CCCCOc1ccc(NC2=C(N3CCCCC3)C(=O)c3ccccc3C2=O)cc1,11%
14,COc1ccc(S(=O)(=O)N(C)CCCNc2ccnc3cc(Cl)ccc23)cc1,10.2%
15,CCc1ccc(C(=O)C[n+]2cc(-c3ccc(OC)cc3)n3c2CCC3)cc1,2.44%
16,CCCCCCOc1ccc(NC(=O)c2ccco2)cc1,0%
17,Cc1ccccc1C(=O)N1CCC(n2nccc2NC(=O)CCOc2ccccc2)CC1,0%
18,CC(=O)Nc1ccc(S(=O)(=O)N(C)CC(=O)NN=Cc2ccncc2)cc1,0%
19,CC(C)(C)C1CCc2[nH]c3ccccc3c(=O)c2C1 (stereo not drawn),0%
20,Cc1ccc(Nc2nc(NN=Cc3ccc(-c4ccc([N+](=O)[O-])cc4)o3)nc(Nc3ccccc3)n2)c(C)c1,0%

row,Compound,IFI
1,O=C(NCCCCNc1ccnc2cc(Cl)ccc12)c1ccc([N+](=O)[O-])cc1,3.74%
2,CCN(CC)c1scc(-c2ccc(Cl)cc2)[s+]1,3.08%
3,CCn1c2ccccc2c2cc(C=NNC(=O)c3nnn(-c4nonc4N)c3-c3ccccc3)ccc21,0%
4,O=[N+]([O-])c1cc([N+](=O)[O-])c2cccnc2c1Nc1cccc2cccnc12,10%
5,COc1ccc(/C=C/C(=O)Nc2ccncc2)cc1OC,2.9%
6,Cc1cc(C)c(S(=O)(=O)N2CCCC2CNC(=O)c2cccc([N+](=O)[O-])c2)c(C)c1 (stereo not drawn),0%
7,C1=C(c2ccc(CN3CCCCC3)cc2)N2CCN=C2c2ccccc21,2.98%
8,O=C(CN1CCCC1)Nc1ccc(-c2nc3cc(NC(=O)CN4CCCC4)ccc3o2)cc1,5.41%
9,CC(NS(=O)(=O)c1ccccc1)C(=O)NC1CCCC1 (stereo not drawn),0%
10,c1ccc(C[C@H]2CN(c3ccc4ccccc4c3)CCN2CCNCC2CCCO2)cc1 (stereo partly drawn),3.66%
11,O=C(Nc1ccc(Cl)cc1)Nc1ccc(Br)cn1,4.17%
12,Cc1ccn2c(NC(C)(C)CC(C)(C)C)c(-c3ccccc3OC(=O)C3CCC3)nc2c1,2.8%
13,CCCN(C(=O)Nc1c(C(C)C)cccc1C(C)C)C(CC)c1nc2ccccc2c(=O)n1-c1cccc(C)c1 (stereo not drawn),0.943%
14,N#CN=C(N)c1sc(Nc2ccccc2)nc1N,15.4%
15,CC(C)(C)CC(C)(C)Nc1c(-c2ccccc2OC(=O)c2ccccc2Cl)nc2ccccn12,4.72%
16,COc1cc(NC(C)CCCN(Cc2ccccc2OC)C(=O)C(Cl)Cl)c2ncccc2c1 (stereo not drawn),7.14%
17,CC(C)C1Oc2cc3oc(=O)ccc3cc2C1=NO (stereo not drawn),3.12%
18,O=C1c2cccc(N3CCN(Cc4cccn4-c4nccs4)CC3)c2C(=O)N1Cc1ccc(Cl)cc1,2.59%
